The values below come from the GPR68 mutational scans of Howard et al. (2025).

The chains are these.
B1: GPR68, Q15743 (parent)
chain: MGNITADNSSMSCTIDHTIHQTLAPVVYVTVLVVGFPANCLSLYFGYLQIKARNELGVYLCNLTVADLFYICSLPFWLQYVLQHDNWSHGDLSCQVCGILLYENIYISVGFLCCISVDRYLAVAHPFRFHQFRTLKAAVGVSVVIWAKELLTSIYFLMHEEVIEDENQHRVCFEHYPIQAWQRAINYYRFLVGFLFPICLLLASYQGILRAVRRSHGTQKSRKDQIQRLVLSTVVIFLACFLPYHVLLLVRSVWEASCDFAKGVFNAYHFSLLLTSFNCVADPVLYCFVSETTHRDLARLRGACLAFLTCSRTGRAREAYPLGAPEASGKSGAQGEEPELLTKLHPAFQTPNSPGSGGFPTGRLA

Scores with a large standard error are left out. Not listed are two conditions whose scores span a narrow range. Read del as a deletion of the residues named and ins as an insertion between two positions. For some assays here: The concentration of ogerin is not given here.

Variants of B1 are the subject of data set [1]. The data set can be described thus: cAMP reporter score (Enrich2 score, wild type = 0); higher = more signal; HEK293T, FACS bins.
In data set [2] the parent is B1. Put plainly: surface expression score (Enrich2 score, wild type = 0); higher = more signal; HEK293T, FACS bins.

Turning to E55L, the cAMP reporter score was -0.898 in data set [1] (pH 5.5); -0.317 in data set [1] (pH 6); -1.05 in data set [1] (pH 6, modulator: ogerin); -1.2 in data set [1] (pH 6.5, modulator: ogerin). Further, the surface expression score in data set [2] was 1.43.
The like results for E55M were, in that order, -1.38, -0.767, -1.52, -1.22 and -0.195.
Turning to E55H, the cAMP reporter score in data set [1] (pH 5.5) is -1.12; in data set [1] (pH 6), -1.04; in data set [1] (pH 6, modulator: ogerin) it was -1.24; in data set [1] (pH 6.5, modulator: ogerin), -1.44. Besides, in data set [2], the surface expression score amounted to 0.554.
E55C: the cAMP reporter score in data set [1] (pH 5.5) was -0.677; in data set [1] (pH 6, modulator: ogerin) it was -1.46; in data set [1] (pH 6.5, modulator: ogerin), -1.31. In addition, the surface expression score in data set [2] stood at 1.48.
Take E55T: the cAMP reporter score in data set [1] (pH 5.5) was -0.485; in data set [1] (pH 6), -0.715; in data set [1] (pH 6, modulator: ogerin), -0.882; in data set [1] (pH 6.5, modulator: ogerin), -0.593. Also, the surface expression score in data set [2] came to 1.38.
Regarding E55F, the cAMP reporter score in data set [1] (pH 5.5) is -1.32; in data set [1] (pH 6), -0.505; in data set [1] (pH 6, modulator: ogerin), -1.56; in data set [1] (pH 6.5, modulator: ogerin) it was -1.02. Also, in data set [2], the surface expression score was determined as 0.533.
The like results for E55Y were, in that order, -0.773, -0.372, -0.844, -0.538 and 2.33.
For the variant E55R, the cAMP reporter score in data set [1] (pH 5.5) is -0.086; in data set [1] (pH 6) it was -0.546; in data set [1] (pH 6, modulator: ogerin), -0.671; in data set [1] (pH 6.5, modulator: ogerin), -0.386. In data set [2], the surface expression score turned out to be 2.26.
In the case of E55K, the cAMP reporter score is -0.533 in data set [1] (pH 5.5); -0.211 in data set [1] (pH 6); -1.05 in data set [1] (pH 6, modulator: ogerin); -1.15 in data set [1] (pH 6.5, modulator: ogerin). Further, the surface expression score in data set [2] was -0.494.
Take E55D: the cAMP reporter score in data set [1] (pH 5.5) worked out at 0.502; in data set [1] (pH 6, modulator: ogerin) it was 0.281; in data set [1] (pH 6.5, modulator: ogerin), 2.46. Besides, the surface expression score in data set [2] was -1.56.
On to E55W, for which the cAMP reporter score in data set [1] (pH 5.5) was -0.966; in data set [1] (pH 6), -0.624; in data set [1] (pH 6, modulator: ogerin), -1.1; in data set [1] (pH 6.5, modulator: ogerin), -0.56. Besides, the surface expression score in data set [2] was 3.04.
Regarding E55N, the cAMP reporter score was -0.587 in data set [1] (pH 5.5); -0.081 in data set [1] (pH 6); -0.818 in data set [1] (pH 6, modulator: ogerin); -0.551 in data set [1] (pH 6.5, modulator: ogerin). In addition, the surface expression score in data set [2] came out at 2.73.
The like results for E55Q were, in that order, -0.816, -0.426, -1.59, -1.33 and 2.01.
In the case of E55A, the cAMP reporter score in data set [1] (pH 5.5) was -0.406; in data set [1] (pH 6), -0.157; in data set [1] (pH 6, modulator: ogerin), -0.444; in data set [1] (pH 6.5, modulator: ogerin), -0.517. In addition, the surface expression score in data set [2] was found to be 2.41.
The matching figures for E55S: -0.086, -0.042, -0.52, -0.546 and 1.93.
As to C61_N62del, the cAMP reporter score in data set [1] (pH 5.5) is -1.04; in data set [1] (pH 6), -0.614; in data set [1] (pH 6, modulator: ogerin), -2.03; in data set [1] (pH 6.5, modulator: ogerin), -0.967. The surface expression score in data set [2] was -1.87.
N62del: the cAMP reporter score in data set [1] (pH 5.5) was -1.57; in data set [1] (pH 6), -1.14; in data set [1] (pH 6, modulator: ogerin), -0.63; in data set [1] (pH 6.5, modulator: ogerin), -0.805. Besides, the surface expression score in data set [2] was -2.27.
Take E55_L56insGS: the cAMP reporter score was 0.357 in data set [1] (pH 5.5); -0.275 in data set [1] (pH 6); -0.308 in data set [1] (pH 6, modulator: ogerin); 0.543 in data set [1] (pH 6.5, modulator: ogerin). Also, the surface expression score in data set [2] turned out to be 2.86.
With A66_D67del, the cAMP reporter score in data set [1] (pH 5.5) is -1.67; in data set [1] (pH 6), -1.05; in data set [1] (pH 6, modulator: ogerin), -1.63; in data set [1] (pH 6.5, modulator: ogerin), -0.97. In data set [2], the surface expression score is -2.34.
On to V65_A66del, for which the cAMP reporter score is -1.2 in data set [1] (pH 5.5); -0.677 in data set [1] (pH 6); -1.51 in data set [1] (pH 6, modulator: ogerin); -0.826 in data set [1] (pH 6.5, modulator: ogerin). Further, in data set [2], the surface expression score is -1.98.
Y59del: the cAMP reporter score in data set [1] (pH 5.5) was -1.06; in data set [1] (pH 6, modulator: ogerin), -1.37.
L63_T64insGSG: the cAMP reporter score in data set [1] (pH 5.5) was -1.51; in data set [1] (pH 6), -1.62; in data set [1] (pH 6, modulator: ogerin), -1.21; in data set [1] (pH 6.5, modulator: ogerin), -1.19. Also, the surface expression score in data set [2] is -2.71.
Regarding L60_C61insG, the cAMP reporter score in data set [1] (pH 5.5) is -1.01; in data set [1] (pH 6), -1.23; in data set [1] (pH 6, modulator: ogerin), -1.08; in data set [1] (pH 6.5, modulator: ogerin) it was -0.418. The surface expression score in data set [2] is -2.99.
With V65_A66insGS, the cAMP reporter score in data set [1] (pH 5.5) was -0.941; in data set [1] (pH 6, modulator: ogerin), -1.7; in data set [1] (pH 6.5, modulator: ogerin) it was -1.56. Moreover, in data set [2], the surface expression score was -2.13.
Regarding A66_D67insG, the cAMP reporter score was -0.51 in data set [1] (pH 5.5); -1.14 in data set [1] (pH 6); -0.675 in data set [1] (pH 6, modulator: ogerin); -0.303 in data set [1] (pH 6.5, modulator: ogerin). Further, in data set [2], the surface expression score is -0.289.
T64_V65del: the cAMP reporter score in data set [1] (pH 5.5) is -1.44; in data set [1] (pH 6), -1.84; in data set [1] (pH 6, modulator: ogerin), -1.68; in data set [1] (pH 6.5, modulator: ogerin), -1.28. In addition, the surface expression score in data set [2] was -2.55.
For C61_N62insGS, the cAMP reporter score was -1.37 in data set [1] (pH 5.5); -1.02 in data set [1] (pH 6); -2.62 in data set [1] (pH 6, modulator: ogerin); -1.52 in data set [1] (pH 6.5, modulator: ogerin). Further, the surface expression score in data set [2] is -2.55.
Take V58del: the cAMP reporter score is -0.688 in data set [1] (pH 5.5); -1.76 in data set [1] (pH 6); -1.22 in data set [1] (pH 6, modulator: ogerin); -1.49 in data set [1] (pH 6.5, modulator: ogerin). The surface expression score in data set [2] is -1.66.
Consider V58_Y59insGSG, for which the cAMP reporter score was -1.34 in data set [1] (pH 5.5); -1.41 in data set [1] (pH 6); -0.755 in data set [1] (pH 6.5, modulator: ogerin). In addition, the surface expression score in data set [2] is -2.15.
As to A66del, the cAMP reporter score is -1.75 in data set [1] (pH 5.5); -1.32 in data set [1] (pH 6); -1.9 in data set [1] (pH 6, modulator: ogerin); -1.09 in data set [1] (pH 6.5, modulator: ogerin). Moreover, the surface expression score in data set [2] is -2.86.
For L56_G57insG, the cAMP reporter score is -0.288 in data set [1] (pH 5.5); -0.948 in data set [1] (pH 6); -1.68 in data set [1] (pH 6, modulator: ogerin); -0.578 in data set [1] (pH 6.5, modulator: ogerin). Moreover, the surface expression score in data set [2] was -2.5.
With V65_A66insG, the cAMP reporter score in data set [1] (pH 5.5) is -0.767; in data set [1] (pH 6), 0.991; in data set [1] (pH 6, modulator: ogerin), -0.657; in data set [1] (pH 6.5, modulator: ogerin) it was -0.858.
